# The other results are listed elsewhere or left out.
# Target: T1, MBP-FoxP1dN (Mus musculus, UniProt P58462 326-579)
# T1 sequence: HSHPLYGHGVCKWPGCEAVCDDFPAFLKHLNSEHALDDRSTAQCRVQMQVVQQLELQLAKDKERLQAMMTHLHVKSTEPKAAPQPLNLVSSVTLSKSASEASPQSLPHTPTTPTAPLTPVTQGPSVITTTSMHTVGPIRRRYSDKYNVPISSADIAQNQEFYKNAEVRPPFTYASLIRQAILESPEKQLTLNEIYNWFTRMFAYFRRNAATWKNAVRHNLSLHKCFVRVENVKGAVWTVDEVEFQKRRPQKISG
# Assay: PD-seq (MBP pull-down with sequencing); 20 mM Tris-HCl pH 7.5, 100 mM NaCl, 1.5 mM MgCl2, 0.4 uM protein, 0.1 uM dsDNA library, 30 min, room temperature, amylose pull-down; high values mean tight binding
# Conditions: protein: recombinant; tags: His6-MBP; chain copies: 2; dsDNA, one strand shown
# Procedure, shortened: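 His6-MBP-tagged mouse FoxP3 or FoxP1 fragment lacking the N-terminus, expressed in E. coli, was mixed at 0.4 µM with 0.1 µM Klenow-filled double-stranded degenerate DNA library. Incubation was 30 min at room temperature in Tris pH 7.5 buffer with NaCl and MgCl2. Complexes were caught on amylose resin and washed three times; DNA was released with proteinase K, PCR-barcoded and Illumina-sequenced. Binding is reads-per-million enrichment, pull-down over input, with replicates pooled.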
row,Sequence,binding signal
1,GATGATTGTTCTCCCAGCTGATGAATTATCCGGATCGAGTAAACAAATTTTCCTAATCTTTCTGTTCAAGCGCCATCTAC,0.88 RPM ratio (pull-down/input)
2,GATGATTGTTCTCCCAGCTGATGAATTACCGATTTCGAGTAAACAAATTTTCCTAATCTTTCTGTTCAAGCGCCATCTAC,1.05 RPM ratio (pull-down/input)
3,GATGATTGTTCTCCCAGCTGATGAATTCCAAAGATCGAGTAAACAAATTTTCCTAATCTTTCTGTTCAAGCGCCATCTAC,0.913 RPM ratio (pull-down/input)
4,GATGATTGTTCTCCCAGCTGATGAATTAGATGTCTCGAGTAAACAAATTTTCCTAATCTTTCTGTTCAAGCGCCATCTAC,0.931 RPM ratio (pull-down/input)
5,GATGATTGTTCTCCCAGCTGATGAATTTGCACAGTCGAGTAAACAAATTTTCCTAATCTTTCTGTTCAAGCGCCATCTAC,0.979 RPM ratio (pull-down/input)
6,GATGATTGTTCTCCCAGCTGATGAATTTCCTTCATCGAGTAAACAAATTTTCCTAATCTTTCTGTTCAAGCGCCATCTAC,0.931 RPM ratio (pull-down/input)
7,GATGATTGTTCTCCCAGCTGATGAATTTGTTTCTTCGAGTAAACAAATTTTCCTAATCTTTCTGTTCAAGCGCCATCTAC,1.7 RPM ratio (pull-down/input)
8,GATGATTGTTCTCCCAGCTGATGAATTTGCGTTGTCGAGTAAACAAATTTTCCTAATCTTTCTGTTCAAGCGCCATCTAC,1.29 RPM ratio (pull-down/input)
9,GATGATTGTTCTCCCAGCTGATGAATTCGGACGTTCGAGTAAACAAATTTTCCTAATCTTTCTGTTCAAGCGCCATCTAC,0.853 RPM ratio (pull-down/input)
10,GATGATTGTTCTCCCAGCTGATGAATTGAGCAGGTCGAGTAAACAAATTTTCCTAATCTTTCTGTTCAAGCGCCATCTAC,0.751 RPM ratio (pull-down/input)
11,GATGATTGTTCTCCCAGCTGATGAATTCGACTGATCGAGTAAACAAATTTTCCTAATCTTTCTGTTCAAGCGCCATCTAC,0.864 RPM ratio (pull-down/input)
12,GATGATTGTTCTCCCAGCTGATGAATTGAGGGCTTCGAGTAAACAAATTTTCCTAATCTTTCTGTTCAAGCGCCATCTAC,0.758 RPM ratio (pull-down/input)
13,GATGATTGTTCTCCCAGCTGATGAATTGTGGGGGTCGAGTAAACAAATTTTCCTAATCTTTCTGTTCAAGCGCCATCTAC,0.889 RPM ratio (pull-down/input)
14,GATGATTGTTCTCCCAGCTGATGAATTGCCTCAATCGAGTAAACAAATTTTCCTAATCTTTCTGTTCAAGCGCCATCTAC,1.02 RPM ratio (pull-down/input)
15,GATGATTGTTCTCCCAGCTGATGAATTTCGACTCTCGAGTAAACAAATTTTCCTAATCTTTCTGTTCAAGCGCCATCTAC,0.73 RPM ratio (pull-down/input)
16,GATGATTGTTCTCCCAGCTGATGAATTCGTGATTTCGAGTAAACAAATTTTCCTAATCTTTCTGTTCAAGCGCCATCTAC,1.02 RPM ratio (pull-down/input)
17,GATGATTGTTCTCCCAGCTGATGAATTGATCCAATCGAGTAAACAAATTTTCCTAATCTTTCTGTTCAAGCGCCATCTAC,1.04 RPM ratio (pull-down/input)
18,GATGATTGTTCTCCCAGCTGATGAATTGGGTCGGTCGAGTAAACAAATTTTCCTAATCTTTCTGTTCAAGCGCCATCTAC,0.746 RPM ratio (pull-down/input)
19,GATGATTGTTCTCCCAGCTGATGAATTGTGGTGTTCGAGTAAACAAATTTTCCTAATCTTTCTGTTCAAGCGCCATCTAC,1.31 RPM ratio (pull-down/input)
20,GATGATTGTTCTCCCAGCTGATGAATTCGGCTTATCGAGTAAACAAATTTTCCTAATCTTTCTGTTCAAGCGCCATCTAC,0.921 RPM ratio (pull-down/input)
21,GATGATTGTTCTCCCAGCTGATGAATTTAGTGAATCGAGTAAACAAATTTTCCTAATCTTTCTGTTCAAGCGCCATCTAC,0.958 RPM ratio (pull-down/input)

row,Sequence,binding signal
1,GATGATTGTTCTCCCAGCTGATGAATTTCAGGCATCGAGTAAACAAATTTTCCTAATCTTTCTGTTCAAGCGCCATCTAC,0.927 RPM ratio (pull-down/input)
2,GATGATTGTTCTCCCAGCTGATGAATTTCGCCGTTCGAGTAAACAAATTTTCCTAATCTTTCTGTTCAAGCGCCATCTAC,0.799 RPM ratio (pull-down/input)
3,GATGATTGTTCTCCCAGCTGATGAATTTCTGATATCGAGTAAACAAATTTTCCTAATCTTTCTGTTCAAGCGCCATCTAC,1.05 RPM ratio (pull-down/input)
4,GATGATTGTTCTCCCAGCTGATGAATTAGCAACATCGAGTAAACAAATTTTCCTAATCTTTCTGTTCAAGCGCCATCTAC,1.38 RPM ratio (pull-down/input)
5,GATGATTGTTCTCCCAGCTGATGAATTTGTATAATCGAGTAAACAAATTTTCCTAATCTTTCTGTTCAAGCGCCATCTAC,1.56 RPM ratio (pull-down/input)
6,GATGATTGTTCTCCCAGCTGATGAATTTTTCAGCTCGAGTAAACAAATTTTCCTAATCTTTCTGTTCAAGCGCCATCTAC,0.846 RPM ratio (pull-down/input)
7,GATGATTGTTCTCCCAGCTGATGAATTGGCTTATTCGAGTAAACAAATTTTCCTAATCTTTCTGTTCAAGCGCCATCTAC,0.977 RPM ratio (pull-down/input)
8,GATGATTGTTCTCCCAGCTGATGAATTCGCGGCTTCGAGTAAACAAATTTTCCTAATCTTTCTGTTCAAGCGCCATCTAC,0.811 RPM ratio (pull-down/input)
9,GATGATTGTTCTCCCAGCTGATGAATTCCCGCTCTCGAGTAAACAAATTTTCCTAATCTTTCTGTTCAAGCGCCATCTAC,0.763 RPM ratio (pull-down/input)
10,GATGATTGTTCTCCCAGCTGATGAATTCCCGAGATCGAGTAAACAAATTTTCCTAATCTTTCTGTTCAAGCGCCATCTAC,0.874 RPM ratio (pull-down/input)
11,GATGATTGTTCTCCCAGCTGATGAATTTTCGGACTCGAGTAAACAAATTTTCCTAATCTTTCTGTTCAAGCGCCATCTAC,0.807 RPM ratio (pull-down/input)
12,GATGATTGTTCTCCCAGCTGATGAATTAAGCAACTCGAGTAAACAAATTTTCCTAATCTTTCTGTTCAAGCGCCATCTAC,1.08 RPM ratio (pull-down/input)
13,GATGATTGTTCTCCCAGCTGATGAATTGTCCTAGTCGAGTAAACAAATTTTCCTAATCTTTCTGTTCAAGCGCCATCTAC,0.994 RPM ratio (pull-down/input)
14,GATGATTGTTCTCCCAGCTGATGAATTCCATACTTCGAGTAAACAAATTTTCCTAATCTTTCTGTTCAAGCGCCATCTAC,0.846 RPM ratio (pull-down/input)
15,GATGATTGTTCTCCCAGCTGATGAATTCCTAAAATCGAGTAAACAAATTTTCCTAATCTTTCTGTTCAAGCGCCATCTAC,0.966 RPM ratio (pull-down/input)
16,GATGATTGTTCTCCCAGCTGATGAATTAGATACATCGAGTAAACAAATTTTCCTAATCTTTCTGTTCAAGCGCCATCTAC,1.25 RPM ratio (pull-down/input)
17,GATGATTGTTCTCCCAGCTGATGAATTCGTTCCATCGAGTAAACAAATTTTCCTAATCTTTCTGTTCAAGCGCCATCTAC,0.838 RPM ratio (pull-down/input)
18,GATGATTGTTCTCCCAGCTGATGAATTTGTCTTTTCGAGTAAACAAATTTTCCTAATCTTTCTGTTCAAGCGCCATCTAC,1.27 RPM ratio (pull-down/input)
19,GATGATTGTTCTCCCAGCTGATGAATTCGACCTTTCGAGTAAACAAATTTTCCTAATCTTTCTGTTCAAGCGCCATCTAC,0.853 RPM ratio (pull-down/input)
20,GATGATTGTTCTCCCAGCTGATGAATTATGCTAGTCGAGTAAACAAATTTTCCTAATCTTTCTGTTCAAGCGCCATCTAC,1.05 RPM ratio (pull-down/input)
21,GATGATTGTTCTCCCAGCTGATGAATTAGAGTATTCGAGTAAACAAATTTTCCTAATCTTTCTGTTCAAGCGCCATCTAC,1.09 RPM ratio (pull-down/input)

row,Sequence,binding signal
1,GATGATTGTTCTCCCAGCTGATGAATTGTTATTGTCGAGTAAACAAATTTTCCTAATCTTTCTGTTCAAGCGCCATCTAC,3.45 RPM ratio (pull-down/input)
2,GATGATTGTTCTCCCAGCTGATGAATTGGTGTCCTCGAGTAAACAAATTTTCCTAATCTTTCTGTTCAAGCGCCATCTAC,0.99 RPM ratio (pull-down/input)
3,GATGATTGTTCTCCCAGCTGATGAATTTAATGTCTCGAGTAAACAAATTTTCCTAATCTTTCTGTTCAAGCGCCATCTAC,1.07 RPM ratio (pull-down/input)
4,GATGATTGTTCTCCCAGCTGATGAATTTCGCGATTCGAGTAAACAAATTTTCCTAATCTTTCTGTTCAAGCGCCATCTAC,0.841 RPM ratio (pull-down/input)
5,GATGATTGTTCTCCCAGCTGATGAATTGTGGCTTTCGAGTAAACAAATTTTCCTAATCTTTCTGTTCAAGCGCCATCTAC,1.19 RPM ratio (pull-down/input)
6,GATGATTGTTCTCCCAGCTGATGAATTCCAGAAGTCGAGTAAACAAATTTTCCTAATCTTTCTGTTCAAGCGCCATCTAC,0.773 RPM ratio (pull-down/input)
7,GATGATTGTTCTCCCAGCTGATGAATTTGTTATCTCGAGTAAACAAATTTTCCTAATCTTTCTGTTCAAGCGCCATCTAC,1.76 RPM ratio (pull-down/input)
8,GATGATTGTTCTCCCAGCTGATGAATTGTCGATATCGAGTAAACAAATTTTCCTAATCTTTCTGTTCAAGCGCCATCTAC,1.1 RPM ratio (pull-down/input)
9,GATGATTGTTCTCCCAGCTGATGAATTGGGGCCGTCGAGTAAACAAATTTTCCTAATCTTTCTGTTCAAGCGCCATCTAC,0.828 RPM ratio (pull-down/input)
10,GATGATTGTTCTCCCAGCTGATGAATTACGACGCTCGAGTAAACAAATTTTCCTAATCTTTCTGTTCAAGCGCCATCTAC,0.993 RPM ratio (pull-down/input)
11,GATGATTGTTCTCCCAGCTGATGAATTGATTTCTTCGAGTAAACAAATTTTCCTAATCTTTCTGTTCAAGCGCCATCTAC,1.1 RPM ratio (pull-down/input)
12,GATGATTGTTCTCCCAGCTGATGAATTAAACCAATCGAGTAAACAAATTTTCCTAATCTTTCTGTTCAAGCGCCATCTAC,1.07 RPM ratio (pull-down/input)
13,GATGATTGTTCTCCCAGCTGATGAATTGCCCGCCTCGAGTAAACAAATTTTCCTAATCTTTCTGTTCAAGCGCCATCTAC,0.962 RPM ratio (pull-down/input)
14,GATGATTGTTCTCCCAGCTGATGAATTGTATGCGTCGAGTAAACAAATTTTCCTAATCTTTCTGTTCAAGCGCCATCTAC,1.29 RPM ratio (pull-down/input)
15,GATGATTGTTCTCCCAGCTGATGAATTACAAAAATCGAGTAAACAAATTTTCCTAATCTTTCTGTTCAAGCGCCATCTAC,1.59 RPM ratio (pull-down/input)
16,GATGATTGTTCTCCCAGCTGATGAATTAATCCTCTCGAGTAAACAAATTTTCCTAATCTTTCTGTTCAAGCGCCATCTAC,0.87 RPM ratio (pull-down/input)
17,GATGATTGTTCTCCCAGCTGATGAATTAATGTTATCGAGTAAACAAATTTTCCTAATCTTTCTGTTCAAGCGCCATCTAC,1.95 RPM ratio (pull-down/input)
18,GATGATTGTTCTCCCAGCTGATGAATTGGTGGCATCGAGTAAACAAATTTTCCTAATCTTTCTGTTCAAGCGCCATCTAC,1.12 RPM ratio (pull-down/input)
19,GATGATTGTTCTCCCAGCTGATGAATTGGTCATGTCGAGTAAACAAATTTTCCTAATCTTTCTGTTCAAGCGCCATCTAC,0.895 RPM ratio (pull-down/input)
20,GATGATTGTTCTCCCAGCTGATGAATTTTGAGAGTCGAGTAAACAAATTTTCCTAATCTTTCTGTTCAAGCGCCATCTAC,0.905 RPM ratio (pull-down/input)
21,GATGATTGTTCTCCCAGCTGATGAATTTAAACCATCGAGTAAACAAATTTTCCTAATCTTTCTGTTCAAGCGCCATCTAC,0.996 RPM ratio (pull-down/input)

# Reference: paper PMC12820563, “FoxP3 forms a head-to-head dimer in vivo and stabilizes its multimerization on adjacent microsatellites”
